Assay results as given in the RNAGym collection of RNA variant scans (doi:10.7554/elife.90254).
Read counts are not given, so values of variants with three or more changes are uncertain.

B1: LINE1-full (parent)
chain: UACGUAGGUGGUUUUCCCCUGAUAGUGCUAAGGGGGCCUGGAAGUUUGGACUGGGCAGAGCUCAACACAGCGUGGCAAAGUGGCUGUGGCUAGACUGCCUCUCUGGAUUCCUCGUCACUCAGCAGGGCAUCUCUGAGAGAAAUGCC

Variants of: B1
Assay: self-cleavage, relative activity (ratio to wild type); higher = more cleavage; in vitro, sequencing; the parent is a self-cleaving ribozyme

| Variant | self-cleavage |
| --- | --- |
| UACGUAGGUGGUUUUCCCCUGAUAGUGCUAAGGGGGCCUGGAAGUUUGGACUGGGCAGAGCUCAACACAGCGUGGCAAAGUGGCUGUGGCUAGACUGCCUCUCAGGAUUCCCCGUCACUCAGCAGGGCAUCUCUGAGGGAAAUGCC [U104A U112C A138G] | 1.31 |
| UGCGUAGGCGGUUUUCCCCUGAUAGUGCUAAGGGGGCCUGGUAGUUUGGACUGGGCAGAGCUCAACACAGCGUGGCAAAGUGGCUGUGGCUAGACUGCCUCUCUGGAUUCCUCGUCACUCAGCAGGGCAUCUCUGAGAGAAAUGCC [A2G U9C A42U] | 1.12 |
| UACGUAGGUGGUUUUCCCCUGAUAGUGCUAAGGGGGCCUGGAGGUUCGGACUGGGCAGAGCUCAACACAGCGUGGCAAAGUGGCUGUGGCUAGACUGCCUCUCUGGAUUCCUCGUCACUCAGCAGGGCAUCUCUGAGAGAGAUGCC [A43G U47C A141G] | 1.7 |
| UACGAAGGUGGUUUUCCCCUGAUAGUGCUAAGGGGGCCUGGAAGUUUGGACUGGGCAGAGCUCAACACAGCGUGGCAAAGUGGCUGUGGCUAGGCUGCCUCUCUGGAUUCCUCGCCACUCAGCAGGGCAUCUCUGAGAGAAAUGCC [U5A A94G U115C] | 0.4 |
| UACGUAGGUGGUCUUCCCCUGAUAGUGCUAAGGGGGCCUGGACGUUUGGACUGGGCAGAGCUCAACACAGCGUGGCAAAGUGGCUGUGGCUAGACUGCCUCUCUGGAUUCCUCGUCACUCAGCAGGGCCUCUCUGAGAGAAAUGCC [U13C A43C A129C] | 0 |
| UACGUAGGUGGUUUUCCCCUGAUAGUGCUAAGGGGGCCUGGGAGUUUGUACUGGGCAGAGCUCAACACAGCGUGGCAUAGUGGCUGUGGCUAGGCCGCCUCUCUGGAUUCCUUGUCACUCAGCAGGGCACAUCUGAGAGAAGUGCC [A42G G49U A78U A94G U96C C113U U130C C131A A142G] | 0.04 |
| UACGUAGGUGGUUUUCCCCUGAUAGUGCUAAGGGGGCCUGGAAGUUUGGACUGGGCAGAGCUCAACACUGCGUGGCAAAGUGGCUGUGGCUAGACUGCCCCUCUGGAUUCCUCGUCAUUCAGCAGGGCAUCUCUGAGAGAAAUGCC [A69U U100C C118U] | 0.08 |
| UACGUAGGCGGUUUUCCCCUGAUAGUGCUAAGGGGGCCUGGGAGUUUGGACUGGGCAGAGCUCAACUCAGCGUGGCAAAGUGGCUGUGGCUAGAUUGCCUCUCUGGAUUCCUCGUCACUCAGCAGGGCAUCUCAGAGAGAAAUGCC [U9C A42G A67U C95U U134A] | 0.16 |
| UACGUAGGUAGUUUUCCCCUGGUAGUGCUAAGGGGGCCUGGAAGUUUGGACUGGGCAGAGCUCAACACAGCGUGGCAAAGUGGCUGUGGCUAGACUGCCACUCUGGAUUCCUCGUCACUCAGCAGGGCAUCUCUGAGAGAAAUGCC [G10A A22G U100A] | 0.74 |
| UACGUAGGUGGUUUUCCCCUGAUAGUGCUAAGGGGGCCUGGAAGUUUGGACUGGGCAGAGCCCAACACAGCGUGGCAAAGUGGCUGUGGCUAGACAGCCUCUCUGGAUUCCUCGUCACUCAGCAGGGCAUCUCUGAGAGUAAUGCC [U62C U96A A140U] | 0.06 |
| UACGUAGGUGGCUUUCCCCUGAUAGUGCUAAGGGGGCCUGGAAGUUUGGACUGGGCAGAGCUCAACACUGCGUGGCAAAGUGGCUGUGGCUAGACUGCCUCUCUGGAUUCCCCGUCACACAGCAGGGCAUCUCUGAGAGAAAUGCC [U12C A69U U112C U119A] | 0.15 |
| UACGUAGGAGGUUUUCCCCUGAUAGUGCUAAGGGGGCCCGGAAGUUUGGACUGGGCAGAGCUCUACACAGCGUGGCAAAGUGGCUGUGGCUAGACUGCCUCUCUGGAUUCCUCGUCACUCAGCAGGGCAUCUCUGAGAGAAAUGCC [U9A U39C A64U] | 0.44 |
| UACGUAGGUGGUUUCCCCCUGAUAGUGCUAAGGGGGCCUGGAAGUGUGGACUGGGCAGAGCUCAACACAGCGUGGCAAAGUGGCUGUGGCUAGACUGCCUCUCUGGAUCCCCCGUCACUCAGCAGGGCAUCUCUGAGAGAAAUGCC [U15C U46G U109C U112C] | 1.98 |
| UACGUAGGUGGUUUUCCCCUGAUAGUGCUAAGGGGGCCUGGAAGUUUGGACUGGGCAGAGCUCAACACUGCGUGGCAAAGUGGCUGUGGCUAGACUGCCUCCCUGGAUUCCUCGUCACUCAGCAGGGCGUCUCUGAGAGAAAUGCC [A69U U102C A129G] | 0 |
| UACGUAGGCGGUUCUCCCCUGAUAGUGCUAAGGGGGCCUGGAAGUUUGGACUGGGCAGAGCUCAAUACAGCGUGGCAAAGUGGCUGUGGCUAGACUGCCCCUCUGGAUUCCUCGUCACUCAGCAGGGCAUCUCUGAGGGAAAUGCC [U9C U14C C66U U100C A138G] | 0.18 |
| UACGUAGGUGGUUUUCCCCUGAUAGUGCUAAGGGGGCCUGGGAGUUUGGACUGGGCAGAGCUCAACUCAGCGUGGCAAAGUGGCUGUGGCUAGACUGCCUCUCUGGAUUCCUCGUCACUCAGCGGGGCAUCUCUGAGAGAAGUGCC [A42G A67U A124G A142G] | 0.18 |
| UACGUAGGUGGUCUUCCCCUGAUAGUGCUAAGGGGGCCUGGAAGUUUGGCCUGGGCAGAGCUCAACACAGCGUGGCAAAGUAGCUGUGGCUAGACUGCCUCUCUGGAUUCCUCGUCACUCAGCAGGGCAUCUCUGAGAGAAAUGCC [U13C A50C G82A] | 1.6 |
| UACGUAGGUGGUUUUCCCCUGAUAGUGCUUAGGGGGCCUGGAAGUUUGGACUGGGCAGGGCUCAACACAGCGAGGCAAAGUGGCUGUGGCUAGACUGCCUCUCUGGAUUCCUCGUCACUCAGCAGGGCAUCUCUGAGAGAAAUGCC [A30U A59G U73A] | 0.11 |
| UACGUAGGUGGUUUACCCCUGAUAGUGCUAAGGGGGCCUGGAAGUUUGGACUGGGCAGAGCUCAAUACAGCGUGGCAAAGUGGCUGUGGCUAGACUGGCUCUCUGGAUUCCUCGUCACUCAGCAGGGCAUCUCUGAGAGAGAUGCC [U15A C66U C98G A141G] | 0.05 |
